Test results reported in PubChem BioAssay AID488969 (Vanderbilt High Throughput Screening Facility, 2010).
The full ranking holds about 110,000 compounds; the median of “z-score” is about -0.1, and the highest 2% start at about 2. This is one part of the list.

molecular target: Metabotropic glutamate receptor 8 (Rattus norvegicus) (UniProt P70579); experiment: rat mGluR8 modulators via GIRK flux, primary screen, cell-based, thallium flux, HTS (AID 488969); conditions: HEK293 rat mGluR8, GIRK (G protein-gated inwardly rectifying potassium channel) thallium flux, FluoZin2; at 10 µM; stronger effect = higher value; submaximal glutamate (EC20) added with thallium
Sequence of UniProt P70579 (P70579 whole entry, looked up): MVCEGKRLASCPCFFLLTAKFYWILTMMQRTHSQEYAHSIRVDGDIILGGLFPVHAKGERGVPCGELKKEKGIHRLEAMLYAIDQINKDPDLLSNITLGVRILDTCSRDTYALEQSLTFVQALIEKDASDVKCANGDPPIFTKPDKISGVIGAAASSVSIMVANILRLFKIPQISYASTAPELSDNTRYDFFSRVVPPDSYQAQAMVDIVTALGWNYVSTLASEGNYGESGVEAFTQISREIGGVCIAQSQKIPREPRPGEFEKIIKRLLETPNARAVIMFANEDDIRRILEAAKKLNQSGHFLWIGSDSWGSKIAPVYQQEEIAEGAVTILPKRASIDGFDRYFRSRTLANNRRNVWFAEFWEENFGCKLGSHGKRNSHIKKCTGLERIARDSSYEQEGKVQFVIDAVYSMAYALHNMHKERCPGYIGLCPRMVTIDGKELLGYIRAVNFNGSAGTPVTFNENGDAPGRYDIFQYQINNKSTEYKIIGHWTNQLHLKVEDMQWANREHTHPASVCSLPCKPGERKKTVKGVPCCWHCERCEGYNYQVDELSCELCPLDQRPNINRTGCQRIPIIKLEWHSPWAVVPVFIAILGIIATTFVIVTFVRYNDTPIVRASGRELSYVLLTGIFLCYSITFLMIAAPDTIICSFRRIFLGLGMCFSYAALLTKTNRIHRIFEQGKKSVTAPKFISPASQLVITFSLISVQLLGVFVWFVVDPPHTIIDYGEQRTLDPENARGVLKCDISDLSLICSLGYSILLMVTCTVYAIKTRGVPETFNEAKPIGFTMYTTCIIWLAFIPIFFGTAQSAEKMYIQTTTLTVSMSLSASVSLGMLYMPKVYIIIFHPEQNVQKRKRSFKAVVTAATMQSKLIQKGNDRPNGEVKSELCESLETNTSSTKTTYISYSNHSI

SMILES | z-score
CSC1=NC2(CC(c3ccccc3)Oc3cc(O)ccc32)CC(C)(C)N1 (configuration not stated) | 0.359
O=C(COc1cccc(NC(=O)c2cccs2)c1)c1ccc(F)cc1 | -0.182
c1cc2c3c(cccc3c1)C(N1CCN(C3=Nc4cccc5cccc3c45)CC1)=N2 | -0.0313
COc1ccc(S(=O)(=O)Nc2ccccc2OC)cc1NC(=O)CC1CC2CCC1C2 (configuration not stated) | -0.0236
Cc1nnc(SCC(=O)Nc2c(Cl)cccc2Cl)[nH]c1=O | 0.127
O=c1[nH]c(=S)c2c(n1-c1ccccc1)CCC2 | -0.521
O=c1cc(CO)oc(CN2CCN(Cc3ccccc3)CC2)c1O | 0.187
Cc1cc(OCC(=O)Nc2ccc(S(=O)(=O)N3CCN(C)CC3)cc2)ccc1Cl | 0.553
CC(=O)c1ccc(OC(=O)C2c3ccccc3Oc3ccccc32)cc1 | -0.187
O=C(N/N=C\c1ccc(F)cc1)c1csnn1 | -0.00941
CCC(CC)=NNc1cccc([N+](=O)[O-])c1 | 0.023
O=C(Nc1ccc([N+](=O)[O-])cc1)/C(=C/c1cccc([N+](=O)[O-])c1)NC(=O)C1CCCCC1 | 0.117
COc1ccc(S(=O)(=O)NCCc2ccc(F)cc2)cc1 | -0.512
COc1ccc(NC2=NC3(CCCCC3)N=C(N)N2)cc1 | 0.282
O=C1c2ccccc2C(Nc2ccc3c(c2)OCCO3)N1Cc1ccc2c(c1)OCO2 (configuration not stated) | -0.879
COc1ccc(-c2nc3ccccc3s2)cc1O | -0.728
COc1nn(CC(=O)N2N=C(C(F)F)CC2(O)C(F)F)cc1[N+](=O)[O-] (configuration not stated) | -0.324
COc1cccc(NC(=O)N2CCCC2C(=O)NC(C)C)c1 (configuration not stated) | -0.0288
CCCS(=O)(=O)N1CCC(C(=O)NC2CCC(C)CC2)CC1 (configuration not stated) | 0.123

SMILES | z-score
COc1ccc(Cl)cc1N=Cc1c(O)cc(C)oc1=O | -0.363
Cc1nn(C)c(C)c1CN(C)C(=O)C1c2ccccc2Oc2ccccc21 | 0.0898
Cc1cc(C(=O)OCC(=O)NC(C)C)c(C)o1 | -0.115
Cn1c(CN2CCOCC2)nnc1SCc1ccccc1 | 0.624
Cc1ccc(/C=C/C(=O)Nc2ccccc2C(N)=O)cc1 | -0.124
COc1ccc2[nH]c3c(N4CCN(Cc5ccc6c(c5)OCO6)CC4)ncnc3c2c1 | -0.212
Cn1c2c(c(=O)n(C)c1=O)C1c3cc(Cl)ccc3OCC1CO2 (configuration not stated) | 0.315
CCc1ccc2c(c1)C(C)=CC(C)(C)N2 | -0.05
Cc1ccc(S(=O)(=O)NCc2cccnc2)s1 | -0.152
CC(C)(C)C(=O)Nc1ccc(C(=O)N/N=C/c2ccccc2OC(=O)c2ccc(Cl)cc2Cl)cc1 | -0.246
CCN1CCN(C(c2cccs2)C(C)NC(=O)c2c(F)cccc2F)CC1 (configuration not stated) | 0.594
O=C(/C=C/c1ccc(Cl)cc1Cl)NCc1ccco1 | -0.158
CC(C)OCCCNCc1cccs1 | 0.695
CCOC(=O)C(NC(=O)Nc1ccccc1)(OCC)C(F)(F)F (configuration not stated) | -0.207
COc1cccc(NC(=O)c2ccc(NC(C)=O)cc2)c1 | -0.0341
Cc1ccc(CSC2=Nc3sccc3C3=NC(=O)CN23)cc1 | -0.000655
COc1cc(-c2nc(-c3ccc4c(c3)-c3ccccc3S4(=O)=O)c(-c3ccccc3)[nH]2)cc(OC)c1O | 0.525
COc1cc(/C=C2/C(=O)NN(c3cccc(F)c3)C2=O)ccc1OC(=O)c1ccco1 | -0.208
O=C1CCC(C(=O)N(c2ccccc2)C2(C(=O)NC3CCCCC3)CCCCC2)N1 (configuration not stated) | 0.172

SMILES | z-score
COc1ccc(C(C#N)N2CCOCC2)cc1 (configuration not stated) | -0.0842
Cc1ccc(CSc2nc3ccccc3c(=O)n2CCCC(=O)NCc2ccco2)cc1 | -0.176
Fc1ccccc1N1CCN(Cc2nc(-c3ccc(Cl)cc3Cl)no2)CC1 | -0.127
CCCCN(CC)Cc1c(C)[nH]c2ccccc2c1=O | 0.464
CCOC(=O)CC(=O)CSc1nc(-c2ccccc2)cc(-c2ccccc2)c1C#N | -0.0278
CCCOc1ccc2c(C)c(CC(=O)OC)c(=O)oc2c1 | 0.149
O=C(Nc1nc(-c2ccccc2)cs1)c1ccc2c(=O)n3c(nc2c1)CCCCC3 | -0.159
O=C(CN1C(=O)C2C3C=CC(C3)C2C1=O)N1CC=C(c2ccccc2)CC1 (configuration not stated) | -0.292
CCNC(=O)CC1SC(=Nc2ccc(C)cc2)N(CC)C1=O (configuration not stated) | -0.996
CS(=O)(=O)N(Cc1ccco1)CC(O)Cn1cc(C=O)c2ccccc21 (configuration not stated) | -0.256
O=C1CCCN1c1ccc(CNS(=O)(=O)c2ccc(F)cc2)cc1 | 0.357
CCn1nc(-c2ccccc2)c2nc3ccccc3nc21 | -0.0247
Cc1cc(NCCCN2CCOCC2)n2nc(C)c(-c3ccccc3)c2n1 | -0.314
C=CCn1c(SCC(=O)O)nnc1-c1ccc(C(C)(C)C)cc1 | -0.337
C#CC(C)(CC)NC(=O)c1cc(OC)c(OC)c(OC)c1 (configuration not stated) | 0.11
CNC(=O)CN(c1ccc(OC)cc1)S(=O)(=O)c1ccc(F)cc1 | -0.263
O=C(Oc1c(-c2ccccc2)oc2ccccc2c1=O)c1ccccc1 | 0.662
COc1ccc(S(=O)(=O)N(C)CC(=O)NCc2cccnc2)cc1C | 1.4
S=C(Nc1ccccc1Cl)NC1CCN(Cc2ccccc2)CC1 | -0.612
